Data published in publication PMC4336329 (PLoS ONE, 2015).
The whole screen tested about 310,000 compounds, of which about 2,200 (0.71%) showed an effect of 50% or more. The effect is printed as a negative number. The list shows a part of the results.

Each compound was assayed against human ether-à-go-go-related gene (hERG) potassium channel (human, UniProt Q12809) (assay: primary screen, population patch clamp on CHO cells stably expressing hERG).
Sequence of human ether-à-go-go-related gene (hERG) potassium channel (Q12809 whole entry, looked up): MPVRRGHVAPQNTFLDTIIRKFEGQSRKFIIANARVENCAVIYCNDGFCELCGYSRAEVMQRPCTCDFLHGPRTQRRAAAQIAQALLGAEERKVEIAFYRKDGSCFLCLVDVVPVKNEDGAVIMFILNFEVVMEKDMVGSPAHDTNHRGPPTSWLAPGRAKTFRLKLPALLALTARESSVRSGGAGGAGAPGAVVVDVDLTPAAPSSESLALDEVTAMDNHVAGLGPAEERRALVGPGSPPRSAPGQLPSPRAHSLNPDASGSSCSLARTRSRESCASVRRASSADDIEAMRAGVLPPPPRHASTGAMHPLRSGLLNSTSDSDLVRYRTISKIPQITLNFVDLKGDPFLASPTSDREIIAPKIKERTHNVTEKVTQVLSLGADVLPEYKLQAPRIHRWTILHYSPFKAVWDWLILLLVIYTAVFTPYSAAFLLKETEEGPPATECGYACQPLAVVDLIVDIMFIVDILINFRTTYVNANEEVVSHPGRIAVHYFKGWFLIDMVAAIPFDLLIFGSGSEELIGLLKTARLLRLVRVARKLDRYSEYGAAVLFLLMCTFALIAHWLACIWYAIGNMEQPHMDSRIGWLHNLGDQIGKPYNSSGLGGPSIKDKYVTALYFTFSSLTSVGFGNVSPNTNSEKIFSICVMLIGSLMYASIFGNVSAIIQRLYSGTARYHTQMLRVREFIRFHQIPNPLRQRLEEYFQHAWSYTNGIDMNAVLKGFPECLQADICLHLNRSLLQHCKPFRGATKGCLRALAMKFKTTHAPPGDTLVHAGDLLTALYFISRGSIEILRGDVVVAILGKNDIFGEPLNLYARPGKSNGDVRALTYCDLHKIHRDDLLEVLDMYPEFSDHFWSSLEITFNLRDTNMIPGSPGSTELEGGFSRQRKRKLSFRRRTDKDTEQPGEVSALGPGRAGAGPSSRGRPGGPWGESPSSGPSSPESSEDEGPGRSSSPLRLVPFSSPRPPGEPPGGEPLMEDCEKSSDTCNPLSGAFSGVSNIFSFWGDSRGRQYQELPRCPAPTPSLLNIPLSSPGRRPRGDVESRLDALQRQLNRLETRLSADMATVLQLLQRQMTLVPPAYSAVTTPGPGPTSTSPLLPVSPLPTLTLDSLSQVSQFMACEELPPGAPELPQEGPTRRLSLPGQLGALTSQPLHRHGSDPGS

SMILES | hERG current change (%, negative = inhibition) at 1uM [%]
CCCN(CCC)c1nc(N)nc(-c2cc(Cl)ccc2OC)n1 | 9.99
CC1(c2ccc3noc(-c4cccc(F)c4)c3c2)OCCO1 | 6.35
CC(C)C(=O)Nc1ccc2c(c1)nc(CCN1CCN(c3ccccc3)CC1)n2C | -2.92
CCc1onc(C)c1C(=O)Nc1ccc(N2CCOCC2)cc1 | 15.9
Cc1cc(C(=O)Nc2ccncc2)ccc1[N+](=O)[O-] | -0.659
CC1CCN(c2ccc(C(=O)NCc3cccs3)cn2)CC1 | 16.8
Cc1cccn2c(=O)c3cc(C(=O)O)n(C)c3nc12 | 6.29
CCOc1cccc2sc(N(CCN(CC)CC)C(=O)c3cccc([N+](=O)[O-])c3)nc12.Cl | -44.9
O=C(NCCS(=O)(=O)c1ccc(Br)cc1)c1ccc(Cl)cc1 | 0.0459
Nc1c2c(nc3ccc(Br)cc13)N(c1ccccc1)CC2.O=C(O)C(=O)O | -6.04
CCN1C(=O)NC(c2ccccc2)(c2ccccc2)C1=O | 14.9
Cn1c(=O)c(C(=O)NCC2CCCO2)c(O)c2ccccc21 (stereo not shown) | 0.171
Nc1ccc(C(=O)Nc2cccc3ncccc23)cc1 | 15.2
CCc1ccc(N2CN(CCc3ccccc3)CNC2=S)cc1 | 13.5
CS(=O)(=O)N1CCN(c2ccc(C(=O)NC3C4CC5CC(C4)CC3C5)cc2[N+](=O)[O-])CC1 (stereo not shown) | 1.24
CCNC(=S)N/N=C/c1c(C)nn(-c2cccc(Cl)c2)c1Cl | 9.19
O=Cc1ccc(-n2nncc2-c2ccc([N+](=O)[O-])cc2)cc1 | -12.4
COC(=O)C1=C(C)NC2=C(C(=O)CCC2)C1c1cccc(C)n1 (stereo not shown) | 0.397
COc1ccc(C(=O)c2c(-c3ccsc3)oc3ccc(-c4ccc(OC)cc4)cc23)cc1 | -1.42
Cn1nnc2cc(C(=O)N3CCCCCC3)ccc21 | -12.4
CCCCn1c(N)c(N(CCOC)C(=O)C2CCN(c3ncnc4sc(C)c(C)c34)CC2)c(=O)[nH]c1=O | 4.7
O=C(Nc1c(-c2ccccc2)nc2ccc(Cl)cn12)c1cccs1 | 14.3
COc1ccc(NC(=O)C2CCCN(c3cnccn3)C2)cc1 (stereo not shown) | 15.3

SMILES | hERG current change (%, negative = inhibition) at 1uM [%]
O=S(=O)(N/N=C\c1cn(-c2ccccc2)nc1-c1ccccc1)c1ccccc1 | 10.1
Cc1cc(C(=O)Nc2ccc(Br)cc2F)n(-c2ccccc2)n1 | 9.9
O=C(Cn1nc(C(=O)O)c2ccccc2c1=O)Nc1cccc(S(=O)(=O)N2CCOCC2)c1 | 6.84
Cc1ccccc1-c1nc(CS(=O)(=O)CC(=O)N2CCc3ccccc32)c(C)o1 | -4.21
NC1=NC[C@H](Cc2ccccc2)N1CCc1cccc(F)c1 | 7.61
CCOC1(C(F)(F)F)NC(=O)N(Cc2ccc(OC)cc2)C1=O (stereo not shown) | 2.02
COc1ccc(C2=NCCNC(C(F)(F)F)=C2)cc1 | -3.71
CC(=O)n1cc(/C=N/NC(=O)c2ccccc2O)c2ccccc21 | 15
Cn1nc([N+](=O)[O-])c(C(C#N)c2nc3ccccc3n2C)c(Cl)c1=O (stereo not shown) | 13.6
Cc1ccc(OCC(=O)NCCCNC(=O)c2ccncc2)cc1 | 11
Cc1ccc(S(=O)(=O)N2CCOCC2)cc1C(=O)OC(C)C(=O)c1ccccc1 (stereo not shown) | 6.3
COc1ccc(NC(=O)COC(=O)CCc2nc3ccccc3c(=O)[nH]2)c(OC)c1 | 5.41
O=[N+]([O-])c1nn(-c2ccc3c(c2)OCCO3)n(O)c1=NCc1ccc(F)cc1Cl | 0.671
O=C(Nc1cnccc1C(F)(F)F)NC1CCCCC1 | 8.7
CCOc1ccc(C(CC(=O)O)NC(=O)c2cccs2)cc1OC (stereo not shown) | 10.2
CC(=O)NS(=O)(=O)c1ccc(NC(=O)CSc2ccc(C)cc2)cc1 | 11.6
COc1ccccc1NC(=O)Cn1nc(-c2ccc(Cl)cc2)c2ccccc2c1=O | 5.81
CCn1c(C(C)NC(=O)c2cccc(C)c2)nc2ccccc21 (stereo not shown) | -7.81
CCS(=O)(=O)N1CCCC(C(=O)NC2CCCCC2C)C1 (stereo not shown) | 0.454
CC(C)=CCN1CCN(Cc2cc(CC(C)C)n[nH]2)CC1CCO (stereo not shown) | 4.37
O.c1ccc2c(CN3CCN(C4CCCCC4)CC3)c[nH]c2c1 | -3.51
C=CCSc1nc2c(c(=O)[nH]c(=O)n2C)n1Cc1ccccc1 | -2.55
COc1cccc(CN2CC(C(=O)N3CCOCC3)CCC2=O)c1 (stereo not shown) | 54.7

SMILES | hERG current change (%, negative = inhibition) at 1uM [%]
COc1ccccc1CNC(=O)C(=O)NCC1CCCN1S(=O)(=O)c1cccs1 (stereo not shown) | 16.1
CCOc1cc(C(=O)N2CCN(c3ccccn3)CC2)cc(OCC)c1OCC | 15.5
Cc1ccc(C(C)NC(=O)Cc2cccs2)c(C)c1 (stereo not shown) | 9.71
O=C(N/N=C/CCc1ccccc1)C1CCCCC1 | 11.6
O=C(c1ccccc1)N1CCC2(CC1)NCCc1[nH]cnc12 | 16.7
CC(C)(C)NC(=O)COC(=O)c1ccc(S(=O)(=O)N2CCCCCC2)cc1 | 10
COc1ccc(/C(C)=N/NC(=O)c2nnn(-c3nonc3N)c2CN(C)c2ccccc2)cc1 | 8.13
COc1ccc(/C=C/C(=O)ONC2=NCCCCC2)cc1OC | 12.7
CCOc1ccc(S(=O)(=O)Nc2nccs2)cc1 | 15.7
Cc1cc(NC(=O)CCC2CCCC2)no1 | 14.5
COC(=O)Cc1c(C(=O)OC)nnn1-c1cccc(C(F)(F)F)c1 | 9.3
O=C(NCCCN1CCOCC1)c1cc(-c2ccc(Cl)s2)nc2ccccc12 | 4.54
O=C(NCC1CCCO1)C1CCN(S(=O)(=O)c2cccnc2)CC1 (stereo not shown) | 2.19
O=C(O)c1cccc(-n2cccc2C=C2C(=O)c3ccccc3C2=O)c1 | 11.5
Clc1cccc(/C=N\Nc2nccs2)c1 | -0.404
Cc1ccc(NC(=S)NC2CCN(Cc3ccccc3)CC2)c(C)c1 | -0.78
Cc1ccc(NC(=O)Cc2ccc3c(c2)CCCC3)cc1C | -4.05
COc1ccc(CNC(=O)COC(=O)c2ccccn2)cc1 | 4.36
Cc1nc2ccccc2c(=O)n1-c1ccncc1 | 12.8
CCOC(=O)C1=C(C)N(CCCC(=O)NCc2ccc3c(c2)OCO3)C(=O)NC1c1ccc(Br)cc1 (stereo not shown) | 12.5
COc1ccc(/C(C)=N/NC(=O)c2nnn(-c3nonc3N)c2-c2ccccc2)cc1 | 14.1
COC(=O)c1ccc(S(=O)(=O)NCc2ccccn2)n1C | 14.5
CCCC(C(=O)NC(C)(C)C)N(CC1CCCO1)C(=O)CNS(=O)(=O)c1ccc(F)cc1 (stereo not shown) | 15.7

SMILES | hERG current change (%, negative = inhibition) at 1uM [%]
COC(=O)c1cccc(S(=O)(=O)N2CCC(c3nc4ccccc4o3)CC2)c1 | 7.19
Cc1cccc(N2CCN(C(=O)Cn3cccc3)CC2)c1C | 12.5
Cn1cccc1Cc1nnc(SCC(=O)Nc2nccs2)n1C | 11.2
CC(C)(C)c1ccc(S(=O)(=O)Nc2ccccn2)cc1 | 6.68
O=C(CNC(=O)c1ccncc1)N/N=C/c1ccc(Br)cc1 | 5.38
COc1c(S(=O)(=O)N2CCN(c3ccc(F)cc3)CC2)ccc(Cl)c1Cl | 11.5
Cc1nn(C(C)(C)C)c(C)c1/C=N/OC(=O)Nc1ccc(Cl)cc1 | 6.19
CC(C)Cc1nc(SCC(=O)N2CCCCC2)c2c(=O)n(C)c(=O)n(C)c2n1 | 3.87
O=C(c1ccc2nccnc2c1)N1CCN(c2cccc(C(F)(F)F)c2)CC1 | 0.436
O=C(NCc1ccco1)C(=O)NCC1OCCCN1S(=O)(=O)c1ccc(F)cc1 (stereo not shown) | 10
O=C1NC(=O)C2(COC(c3ccccc3Cl)OC2)S1 (stereo not shown) | 13.6
CCOC(=O)C1=C(CN2CCN(C(=O)c3ccco3)CC2)NC(=O)NC1c1ccc(OC)cc1 (stereo not shown) | -38
CCCCC(=O)Nc1ccnc(-c2cccnc2)n1 | 6.64
Cc1nn(C)cc1CNC(=O)CCC(=O)O | 9.41
COc1ccc(C(=O)NNC(=O)c2snnc2C)cc1 | 14.7
Cl.c1cnc(N2CCNCC2)nc1 | 11.3
Cc1cc(C(=O)Nc2nc(C)c(C(=O)N(C)C)s2)ccc1[N+](=O)[O-] | 7.78
COC(=O)c1cccc(NC(=O)CC2C(=O)NCCN2C(=O)Nc2ccccc2)c1 (stereo not shown) | 13.3
Cc1ccc(-c2csc3ncnc(NCCC(=O)O)c23)cc1C.Cl | 11.7
O=C(Nc1ccccc1NC(=O)c1ccccc1Cl)c1ccccc1Cl | 14.5
CCn1ncc(CNC(=O)C2(C)CC2(Cl)Cl)c1C (stereo not shown) | 7.37
COc1ccc(Cl)cc1Nc1cc(C)nc2nc(C)nn12 | -2.49
